According to patent publication US20190381183A1 (TEXAS A AND M UNIVERSITY SYSTEM, published 2019):

Target: T1, trastuzumab Fab-CalD2 (HER2-specific Fab fragment derived from trastuzumab, fused at the C-terminus of the …)
T1 construct: also called trastuzumab VH-CH1-hinge-CalD2 with trastuzumab light chain
Experiment: SPR, 100 nM CalD1-Fc injected over trastuzumab Fab-CalD2 held on immobilized HER2-ECD-Fc in 2 mM CaCl2, then buffer with 2 mM to 0 mM CaCl2 (1 mM EDTA)

- binding result: binds
B1: CalD1-Fc (human IgG1-derived Fc fragment fused with domain 1 of calbindin D9K) (Fc fusion)
chain: KSPEELKRIFEKYAAKEGDPDQLSKDELKLLIQAEFPSLLKGPGSSV[human IgG1 Fc with changes left out here]
notes: also called CalD1-hinge-Fc; CalD1-Fc fusion
